Test results from PubChem BioAssay (Tox21).
“And” between values parts separate entries of the source, which are not always exact repeats. Equal entries are not always repeated. This list was built around the results that the source calls inconclusive (neither active nor inactive); the mix of calls is not that of the screen. Potencies of inconclusive entries are doubtful fits and often do not repeat. Where a structure was tested more than once in an assay, its records may differ in their call. The source made the active and inactive calls. The call rests on the fitted dose curve; in most records, active means well fitted cell-killing curve with a large enough effect in the repeat runs; inconclusive means weak or mixed curves; inactive means no such curve, though single readings can be large or run the other way.
Potency means the concentration at half of the fitted maximal effect; tags describe the fitted curve by direction and shape.

Assay: qHTS assay for identifying genotoxic compounds that show differential cytotoxicity against isogenic chicken DT40 cell lines with known DNA damage response pathways - Rad54/Ku70 mutant cell line (AID 743015); further: nearly all actives have a fitted effect of over 60% in size
Conditions: DT40 Rad54/Ku70 mutant viability, CellTiter-Glo, 40 h; activity change, negative = cytotoxicity: at 66.8 µM (top of the series)
With `CCCCCCCCCCCCCC[n+]1ccccc1` the Potency was active: 0.109 µM.
With `Nc1nc2ccc([N+](=O)[O-])cc2s1` the Potency was inconclusive: 72.7 µM [cytotoxic].
For `CC1(CN2CCC(n3c(=O)[nH]c4ccccc43)CC2)OCc2ccccc2-n2cccc21` (stereo not given), the Potency was active: 21.1 µM.
For `Cc1ccc(C(=O)c2cc(O)c(O)c([N+](=O)[O-])c2)cc1`, the Potency was inconclusive: 33.5 µM [cytotoxic, single point].
With `C1=CC2C3C=CC(C3)C2C1` (stereo not given) the Potency was inconclusive: 60 µM [cytotoxic, single point].
With `CC(C)CC(C)O` (stereo not given) the Potency was inconclusive: 68.6 µM [cytotoxic, single point].
For `Cc1ccc(C(C)C)c(O)c1`, the Potency was active: 61.1 µM.
For `c1ccc2sc(SN3CCOCC3)nc2c1`, the Potency was inconclusive: 37.6 µM [cytotoxic, partial curve, poor fit].
With `Nc1c2c(nc3ccccc13)CCCC2` the Potency was inconclusive: 29.8 µM [cytotoxic, partial curve, poor fit] and inactive and active: 19.3 µM.
For `CC[N+](C)(CC)CCOC(=O)C1c2ccccc2Oc2ccccc21`, the Potency was “inactive”.
For `OC[C@H]1O[C@@H]2O[C@H]3[C@H](O)[C@@H](O)[C@@H](O[C@H]4[C@H](O)[C@@H](O)[C@@H](O[C@H]5[C@H](O)[C@@H](O)[C@@H](O[C@H]6[C@H](O)[C@@H](O)[C@@H](O[C@H]7[C@H](O)[C@@H](O)[C@@H](O[C@H]1[C@H](O)[C@H]2O)O[C@@H]7CO)O[C@@H]6CO)O[C@@H]5CO)O[C@@H]4CO)O[C@@H]3CO`, the Potency was inconclusive: 32.4 µM [cytotoxic, single point].
In the case of `CC(CC=O)CCCC(C)(C)O` (stereo not given), the Potency was inconclusive: 60.8 µM [cytotoxic, single point].
With `CCOC(=O)C1OC1c1ccccc1` (stereo not given) the Potency was inconclusive: 68.6 µM [cytotoxic, partial curve, poor fit].
For `CCCCC(CC)C(=O)OCCOCCOCCOC(=O)C(CC)CCCC` (stereo not given), the Potency was inconclusive: 30.6 µM [cytotoxic, partial curve].
For `O=Cc1ccc(F)cc1`, the Potency was active: 19.3 µM.
In the case of `CCCCN(CCCC)c1ccc(C(=O)c2ccccc2C(=O)O)c(O)c1`, the Potency was inconclusive: 69.2 µM [cytotoxic, single point].
In the case of `NCCO`, the Potency was inconclusive: 68.6 µM [cytotoxic].
In the case of `CN(C/C=C/C#CC(C)(C)C)Cc1cccc2ccccc12`, the Potency was inconclusive: 37.6 µM [cytotoxic, partial curve, poor fit].
In the case of `Cn1cnc([N+](=O)[O-])c1Sc1ncnc2nc[nH]c12`, the Potency was inconclusive: 50.2 µM [cytotoxic].
In the case of `CC[C@H]1CN2CCc3cc(OC)c(OC)cc3[C@@H]2C[C@@H]1C[C@H]1NCCc2cc(OC)c(OC)cc21`, the Potency was active: 23.7 nM and active: 21.8 nM.
With `C1C[C@@H]2[C@H]3CC[C@H](C3)[C@@H]2C1` the Potency was inconclusive: 68.8 µM [cytotoxic, single point].
In the case of `Nc1ccc(O)c(N)c1`, the Potency was inconclusive: 60.7 µM [cytotoxic, partial curve, poor fit].
For `CCCCCCOC(=O)c1ccccc1O`, the Potency was “inactive”.
With `CN1CCN(CCCN2c3ccccc3Sc3ccc(S(=O)(=O)N(C)C)cc32)CC1` the Potency was inconclusive: 14.3 µM [cytotoxic].
In the case of `CCOc1ccc2[nH]cc(C(=O)NCc3ccccc3)c(=O)c2n1`, the Potency was active: 24.3 µM.
In the case of `O=C(O)C1CCC(C(=O)O)CC1` (stereo not given), the Potency was active: 68.4 µM.

Assay: qHTS assay to identify small molecule antagonists of the androgen receptor (AR) signaling pathway - cell viability counter screen (AID 743033; further: nearly all actives have a fitted effect of over 45% in size)
Conditions: AR-bla HEK293 viability, CellTiter-Glo luminescence, 16 h; activity change, negative = cytotoxicity: at 58.5 µM (top of the series)
For `CCOC(=O)[C@@](C)(N)Cc1ccc(O)c(O)c1`, the Potency was inconclusive: 11.5 µM [rising, single point].
In the case of `CCCCCCCCCCCCCC[n+]1ccccc1`, the Potency was active: 12.3 µM.
For `OCCN1CCN(CCCN2c3ccccc3Sc3ccc(Cl)cc32)CC1`, the Potency was active: 4.56 µM.
With `CCOC(=O)[C@H](CCc1ccccc1)N[C@H]1CCc2ccccc2N(CC(=O)O)C1=O` the Potency was inconclusive: 26.8 µM [cytotoxic, partial curve, poor fit].
With `COc1cccc(OC)c1C(=O)O` the Potency was “inactive”.
In the case of `Cc1ccc(C(=O)c2cc(O)c(O)c([N+](=O)[O-])c2)cc1`, the Potency was inconclusive: 43.6 µM [cytotoxic, partial curve].
For `Cc1ccc(C(C)C)c(O)c1`, the Potency was inconclusive: 49 µM [cytotoxic, single point].
For `Oc1cc2c(cc1O)[C@H]1c3ccc(O)c(O)c3OC[C@@]1(O)C2`, the Potency was inconclusive: 22.2 µM [cytotoxic, partial curve, poor fit].
For `CC[N+](CC)(CCNC(=O)C(=O)NCC[N+](CC)(CC)Cc1ccccc1Cl)Cc1ccccc1Cl`, the Potency was inconclusive: 3.01 µM [cytotoxic, full curve, poor fit].
For `O=[N+]([O-])c1ccccc1Nc1ccccc1`, the Potency was “inactive”.
With `CCOC(=O)C1OC1c1ccccc1` (stereo not given) the Potency was “inactive”.
With `CC1CN(c2ccccc2)NC1=O` (stereo not given) the Potency was “inactive”.
With `NCCO` the Potency was inconclusive: 61.7 µM [cytotoxic, single point].
For `OC[C@@H](O)[C@@H](O)[C@H](O)[C@H](O)CO`, the Potency was “inactive”.
For `CC1=CCC(C(C)C)=CC1`, the Potency was “inactive”.
In the case of `O=C(O)c1cccc([N+](=O)[O-])c1`, the Potency was inconclusive: 21.7 µM [cytotoxic, partial curve, poor fit].
In the case of `O=C(/C=C/c1ccc(O)c(O)c1)O[C@@H]1C[C@@](OC(=O)/C=C/c2ccc(O)c(O)c2)(C(=O)O)C[C@@H](O)[C@@H]1O`, the Potency was “inactive”.
For `CCCCCCC/C=C/C=O`, the Potency was “inactive”.
In the case of `Cn1cnc([N+](=O)[O-])c1Sc1ncnc2nc[nH]c12`, the Potency was inconclusive: 5.46 µM [cytotoxic].
In the case of `CC[C@H]1CN2CCc3cc(OC)c(OC)cc3[C@@H]2C[C@@H]1C[C@H]1NCCc2cc(OC)c(OC)cc21`, the Potency was inconclusive: 84.9 nM [cytotoxic, full curve] and inconclusive: 98.1 nM [cytotoxic, full curve].
With `Cc1c(OCC(F)(F)F)ccnc1CS(=O)c1nc2ccccc2[nH]1` (stereo not given) the Potency was inconclusive: 34.7 µM [cytotoxic].
With `CN1CCN(CCCN2c3ccccc3Sc3ccc(S(=O)(=O)N(C)C)cc32)CC1` the Potency was inconclusive: 3.62 µM [cytotoxic, partial curve, poor fit].
In the case of `CCOc1ccc2[nH]cc(C(=O)NCc3ccccc3)c(=O)c2n1`, the Potency was inconclusive: 24.5 µM [cytotoxic, partial curve, poor fit].
With `O=C(O)C1CCC(C(=O)O)CC1` (stereo not given) the Potency was inconclusive: 61.5 µM [cytotoxic, single point].
